In the supplement of paper PMC8728848:
The list shows a part of the results.

Assays:
Assay in all cases: glycan array binding signal (z-score within array); higher = stronger binding
Conditions in all cases: glycan notation: IUPAC condensed, linker removed
[1] = molecular target: Gal(b1-4)GlcNAc(b1-2)[Gal(b1-4)GlcNAc(b1-6)]Man(a1-6)[GlcNAc(b1-4)][Gal(b1-4)GlcNAc(b1-2)Man(a1-3)]Man(b1-4)GlcNAc(b1-4)GlcNAc
How it was run: (§1)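 The binding signal is a Z-score computed within each array and averaged over linkers. Arrays of the same protein sequence at different concentrations or buffers were also averaged together. Data originate from 3228 arrays in the Consortium for Functional Glycomics database, kept only where the protein sequence was available.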

[2] = molecular target: Gal(b1-4)GlcNAc(b1-2)[Gal(b1-4)GlcNAc(b1-6)]Man(a1-6)[GlcNAc(b1-4)][Gal(b1-4)GlcNAc(b1-2)[Gal(b1-4)GlcNAc(b1-4)]Man(a1-3)]Man(b1-4)GlcNAc(b1-4)[Fuc(a1-6)]GlcNAc
How it was run: as §1

[3] = molecular target: Gal(b1-4)GlcNAc(b1-3)Gal(b1-3)GalNAc
How it was run: as §1

[4] = molecular target: Gal(b1-4)GlcNAc(b1-3)Gal(b1-3)GlcNAc
How it was run: as §1

[5] = molecular target: Gal(b1-4)GlcNAc(b1-3)Gal(b1-4)Glc
How it was run: as §1

[6] = molecular target: Gal(b1-4)GlcNAc(b1-3)Gal(b1-4)GlcNAc
How it was run: as §1

[7] = molecular target: Gal(b1-4)GlcNAc(b1-3)Gal(b1-4)GlcNAc(b1-2)Man(a1-3)[Gal(b1-4)GlcNAc(b1-3)Gal(b1-4)GlcNAc(b1-2)Man(a1-6)]Man(b1-4)GlcNAc(b1-4)GlcNAc
How it was run: as §1

[8] = molecular target: Gal(b1-4)GlcNAc(b1-3)Gal(b1-4)GlcNAc(b1-2)Man(a1-3)[Gal(b1-4)GlcNAc(b1-3)Gal(b1-4)GlcNAc(b1-2)Man(a1-6)]Man(b1-4)GlcNAc(b1-4)[Fuc(a1-6)]GlcNAc
How it was run: as §1

[9] = molecular target: Gal(b1-4)GlcNAc(b1-3)Gal(b1-4)GlcNAc(b1-2)[Gal(b1-4)GlcNAc(b1-3)Gal(b1-4)GlcNAc(b1-6)]Man(a1-6)[Gal(b1-4)GlcNAc(b1-3)Gal(b1-4)GlcNAc(b1-2)Man(a1-3)]Man(b1-4)GlcNAc(b1-4)GlcNAc
How it was run: as §1

[10] = molecular target: Gal(b1-4)GlcNAc(b1-3)Gal(b1-4)GlcNAc(b1-2)[Gal(b1-4)GlcNAc(b1-3)Gal(b1-4)GlcNAc(b1-6)]Man(a1-6)[Gal(b1-4)GlcNAc(b1-3)Gal(b1-4)GlcNAc(b1-2)Man(a1-3)]Man(b1-4)GlcNAc(b1-4)[Fuc(a1-6)]GlcNAc
How it was run: as §1

[11] = molecular target: Gal(b1-4)GlcNAc(b1-3)Gal(b1-4)GlcNAc(b1-3)Gal(b1-4)GlcNAc
How it was run: as §1

[12] = molecular target: Gal(b1-4)GlcNAc(b1-3)Gal(b1-4)GlcNAc(b1-3)Gal(b1-4)GlcNAc(b1-2)Man(a1-3)[Gal(b1-4)GlcNAc(b1-3)Gal(b1-4)GlcNAc(b1-3)Gal(b1-4)GlcNAc(b1-2)Man(a1-6)]Man(b1-4)GlcNAc(b1-4)GlcNAc
How it was run: as §1

[13] = molecular target: Gal(b1-4)GlcNAc(b1-3)Gal(b1-4)GlcNAc(b1-3)Gal(b1-4)GlcNAc(b1-2)Man(a1-3)[Gal(b1-4)GlcNAc(b1-3)Gal(b1-4)GlcNAc(b1-3)Gal(b1-4)GlcNAc(b1-2)Man(a1-6)]Man(b1-4)GlcNAc(b1-4)[Fuc(a1-6)]GlcNAc
How it was run: as §1

[14] = molecular target: Gal(b1-4)GlcNAc(b1-3)Gal(b1-4)GlcNAc(b1-3)Gal(b1-4)GlcNAc(b1-2)[Gal(b1-4)GlcNAc(b1-3)Gal(b1-4)GlcNAc(b1-3)Gal(b1-4)GlcNAc(b1-6)]Man(a1-6)[Gal(b1-4)GlcNAc(b1-3)Gal(b1-4)GlcNAc(b1-3)Gal(b1-4)GlcNAc(b1-2)Man(a1-3)]Man(b1-4)GlcNAc(b1-4)[Fuc(a1-6)]GlcNAc
How it was run: as §1

[15] = molecular target: Gal(b1-4)GlcNAc(b1-3)Gal(b1-4)GlcNAc(b1-3)Gal(b1-4)GlcNAc(b1-3)Gal(b1-4)GlcNAc(b1-2)Man(a1-3)[Gal(b1-4)GlcNAc(b1-3)Gal(b1-4)GlcNAc(b1-3)Gal(b1-4)GlcNAc(b1-3)Gal(b1-4)GlcNAc(b1-2)Man(a1-6)]Man(b1-4)GlcNAc(b1-4)GlcNAc
How it was run: as §1

[16] = molecular target: Gal(b1-4)GlcNAc(b1-3)Gal(b1-4)GlcNAc(b1-3)Gal(b1-4)GlcNAc(b1-3)Gal(b1-4)GlcNAc(b1-2)Man(a1-3)[Gal(b1-4)GlcNAc(b1-3)Gal(b1-4)GlcNAc(b1-3)Gal(b1-4)GlcNAc(b1-3)Gal(b1-4)GlcNAc(b1-2)Man(a1-6)]Man(b1-4)GlcNAc(b1-4)[Fuc(a1-6)]GlcNAc
How it was run: as §1

[17] = molecular target: Gal(b1-4)GlcNAc(b1-3)Gal(b1-4)GlcNAc(b1-3)Gal(b1-4)GlcNAc(b1-3)Gal(b1-4)GlcNAc(b1-2)[Gal(b1-4)GlcNAc(b1-3)Gal(b1-4)GlcNAc(b1-3)Gal(b1-4)GlcNAc(b1-3)Gal(b1-4)GlcNAc(b1-6)]Man(a1-6)[Gal(b1-4)GlcNAc(b1-3)Gal(b1-4)GlcNAc(b1-3)Gal(b1-4)GlcNAc(b1-3)Gal(b1-4)GlcNAc(b1-2)Man(a1-3)]Man(b1-4)GlcNAc(b1-4)[Fuc(a1-6)]GlcNAc
How it was run: as §1

[18] = molecular target: Gal(b1-4)GlcNAc(b1-3)Gal(b1-4)GlcNAc(b1-3)Gal(b1-4)GlcNAc(b1-3)Gal(b1-4)GlcNAc(b1-3)Gal(b1-4)GlcNAc(b1-2)Man(a1-3)[Gal(b1-4)GlcNAc(b1-3)Gal(b1-4)GlcNAc(b1-3)Gal(b1-4)GlcNAc(b1-3)Gal(b1-4)GlcNAc(b1-3)Gal(b1-4)GlcNAc(b1-2)Man(a1-6)]Man(b1-4)GlcNAc(b1-4)GlcNAc
How it was run: as §1

[19] = molecular target: Gal(b1-4)GlcNAc(b1-3)Gal(b1-4)GlcNAc(b1-3)Gal(b1-4)GlcNAc(b1-3)Gal(b1-4)GlcNAc(b1-3)Gal(b1-4)GlcNAc(b1-2)Man(a1-3)[Gal(b1-4)GlcNAc(b1-3)Gal(b1-4)GlcNAc(b1-3)Gal(b1-4)GlcNAc(b1-3)Gal(b1-4)GlcNAc(b1-3)Gal(b1-4)GlcNAc(b1-2)Man(a1-6)]Man(b1-4)GlcNAc(b1-4)[Fuc(a1-6)]GlcNAc
How it was run: as §1

[20] = molecular target: Gal(b1-4)GlcNAc(b1-3)Gal(b1-4)GlcNAc(b1-3)Gal(b1-4)GlcNAc(b1-3)Gal(b1-4)GlcNAc(b1-3)Gal(b1-4)GlcNAc(b1-2)[Gal(b1-4)GlcNAc(b1-3)Gal(b1-4)GlcNAc(b1-3)Gal(b1-4)GlcNAc(b1-3)Gal(b1-4)GlcNAc(b1-3)Gal(b1-4)GlcNAc(b1-6)]Man(a1-6)[Gal(b1-4)GlcNAc(b1-3)Gal(b1-4)GlcNAc(b1-3)Gal(b1-4)GlcNAc(b1-3)Gal(b1-4)GlcNAc(b1-3)Gal(b1-4)GlcNAc(b1-2)Man(a1-3)]Man(b1-4)GlcNAc(b1-4)[Fuc(a1-6)]GlcNAc
How it was run: as §1

[21] = molecular target: Gal(b1-4)GlcNAc(b1-3)Gal(b1-4)GlcNAc(b1-3)Gal(b1-4)GlcNAc(b1-3)Gal(b1-4)GlcNAc(b1-3)Gal(b1-4)GlcNAc(b1-3)Gal(b1-4)GlcNAc(b1-2)Man(a1-3)[Gal(b1-4)GlcNAc(b1-3)Gal(b1-4)GlcNAc(b1-3)Gal(b1-4)GlcNAc(b1-3)Gal(b1-4)GlcNAc(b1-3)Gal(b1-4)GlcNAc(b1-3)Gal(b1-4)GlcNAc(b1-2)Man(a1-6)]Man(b1-4)GlcNAc(b1-4)GlcNAc
How it was run: as §1

[22] = molecular target: Gal(b1-4)GlcNAc(b1-3)Gal(b1-4)GlcNAc(b1-3)GalNAc
How it was run: as §1

[23] = molecular target: Gal(b1-4)GlcNAc(b1-3)Gal(b1-4)GlcNAc(b1-3)[Gal(b1-4)GlcNAc(b1-3)Gal(b1-4)GlcNAc(b1-6)]GalNAc
How it was run: as §1

B1: Pwp5 ND (Candida glabrata) (protein)
chain: MGSSHHHHHHSSGLVPRGSHMASANPVPLTNVCYFPEEYPRQAGFRAITAGLASTILQGSVDELLNYSGLSSLTTQQTTTTTPNFQLPTLPLPTNVYGLTVVPLYLLVQLQGYFVPPVSGQYTFSLENTNDAAIIFFGNPSAFPCGDLSAWPQASADDITVTDGTFPSRTLFLKAGVAYPMRISYYNSLGSGNLAVSFTDPGGTKRTNWNGYIWRYNSCSTCTYT
- glycan array binding signal (z-score) [1]: -0.402
- glycan array binding signal (z-score) [2]: -0.327
- glycan array binding signal (z-score) [3]: -0.402
- glycan array binding signal (z-score) [4]: -0.302
- glycan array binding signal (z-score) [5]: -0.486
- glycan array binding signal (z-score) [6]: -0.685
- glycan array binding signal (z-score) [7]: 0.832
- glycan array binding signal (z-score) [8]: 0.068
- glycan array binding signal (z-score) [9]: 1.03
- glycan array binding signal (z-score) [10]: 0.419
- glycan array binding signal (z-score) [11]: -0.555
- glycan array binding signal (z-score) [12]: 0.12
- glycan array binding signal (z-score) [13]: 3.19
- glycan array binding signal (z-score) [14]: -0.277
- glycan array binding signal (z-score) [15]: -0.295
- glycan array binding signal (z-score) [16]: 0.794
- glycan array binding signal (z-score) [17]: -0.228
- glycan array binding signal (z-score) [18]: 0.088
- glycan array binding signal (z-score) [19]: 0.558
- glycan array binding signal (z-score) [20]: 1.94
- glycan array binding signal (z-score) [21]: 0.987
- glycan array binding signal (z-score) [22]: 0.018
- glycan array binding signal (z-score) [23]: 0.621
